Data taken from PubChem BioAssay AID485281 (National Center for Advancing Translational Sciences (NCATS), 2010).
The whole screen tested about 350,000 compounds, of which about 260 (0.074%) were called active. Inconclusive means that the source gave no clear call. Such entries were picked first, then a sample of the others. Calls come from the whole dose curve; as a rule, active = well fitted inhibition curve with a large enough effect; inconclusive = small, poorly fitted or top-dose-only effect; inactive = no such curve, though single readings can be large or run the other way. Potencies of inconclusive entries are doubtful fits and often do not repeat.

These molecules were tested against Ferritin light chain (Equus caballus) (UniProt P02791) (assay: qHTS Assay for Identification of Novel General Anesthetics). Details: apoferritin/1-aminoanthracene competitive binding, fluorescence; activity change, negative = displacement: at 77.5 µM (top of the series).
Sequence of UniProt P02791 (P02791 whole entry, looked up): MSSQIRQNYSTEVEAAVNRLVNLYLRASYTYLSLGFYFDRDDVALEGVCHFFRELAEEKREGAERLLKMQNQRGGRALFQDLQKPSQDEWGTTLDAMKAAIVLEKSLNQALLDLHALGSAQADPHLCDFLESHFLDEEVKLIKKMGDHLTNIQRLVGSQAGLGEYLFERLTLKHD
Method in brief: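 10 uM apoferritin + 50% sat. 1-AMA, PBS; cpd 10 min RT; Ex380/Em535 endpoint; normalized to free probe vs complex; 4-param Hill fit; propofol titration as pos. ctrl.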
% is set by controls: 0 for no effect and ±100 for the full control effect; potency is the fitted concentration of half-maximal effect; tags give direction and shape of the fitted curve.
Note: nearly all actives have a fitted effect of over 20% in size.

SMILES | Potency | activity change, negative = displacement
CSc1ncccc1C(=O)OCC(=O)c1cc2ccccc2o1 | inconclusive: 35.5 µM [inhibitor, partial curve] | –
CCCCc1ccc(-n2c(Cc3cccs3)n[nH]c2=S)cc1 | inconclusive: 31.6 µM [inhibitor, single point] | –
CC(C)Oc1ccc(C(=O)/C=C2/C(=O)Nc3ccccc32)cc1 | inconclusive: 50.1 µM [inhibitor, single point] | –
CC1(C)CC(=O)C(C=Nc2cc(C(=O)c3ccccc3)ccc2N)=C(O)C1 | inconclusive: 11.2 µM [inhibitor, full curve, poor fit] | –
CCC(Sc1nc(C)cc(=O)[nH]1)C(=O)Nc1nc(-c2ccccc2)cs1 (stereo not drawn) | inconclusive: 25.1 µM [inhibitor, partial curve] | –
Nn1c(SCC(=O)Nc2ccc3c(c2)OCCO3)nnc1C(F)(F)F | inconclusive: 35.5 µM [inhibitor, partial curve] | –
C/C(=N/NC(=O)c1ccc(C)s1)c1cccc(NC(=O)c2ccoc2C)c1 | inconclusive: 0.891 µM [inhibitor, full curve, poor fit] | –
Fc1ccc(NC(=S)N2CCc3ccccc32)cc1 | – | inactive: -14.6%
CNc1ncc(C(=O)c2ccc(Cl)cc2)s1 | inconclusive: 31.6 µM [inhibitor, single point] | –
COc1ccc(NC(=O)/C=C\C(=O)N(c2ccc(C(C)C)cc2)C(C(=O)NCc2ccco2)c2ccc(C)cc2)cc1 (stereo not drawn) | inconclusive: 3.16 µM [inhibitor, full curve] | –
CCOC(=O)C1CCCN(Cc2cccs2)C1 (stereo not drawn) | inconclusive: 25.1 µM [inhibitor, partial curve] | –
O=C(Nc1ccc(Oc2c(F)c(F)c(F)c(F)c2F)cc1)OC1CCN2Cc3ccccc3N=C12 (stereo not drawn) | inconclusive: 35.5 µM [inhibitor, single point] | –
CCOc1cc(/C=C2\CCCc3c2nc2ccccc2c3C(=O)O)ccc1OC | – | inactive: 338%
CCCC(=O)Nc1ccc2nn(-c3ccc(OC)cc3)nc2c1 | – | inactive: 78.5%
CCCCN1C(=O)c2ccc(C(=O)NCc3ccco3)cc2C1=O | inconclusive: 31.6 µM [inhibitor, partial curve] | –
Cc1nc(-c2ccc(C#N)cc2)cs1 | – | inactive: 5.46%
Cc1cc(-c2nnc(-c3cccc(C(F)(F)F)c3)o2)no1 | inconclusive: 39.8 µM [inhibitor, single point] | –
O=C(C#Cc1ccccc1)c1cccc([N+](=O)[O-])c1 | – | inactive: -14.6%
O=C(CC(NCc1ccccn1)C(=O)O)Nc1ccccc1Cl (stereo not drawn) | – | inactive: 2.87%
Cc1ccc(C2(C)NC(=O)N(CC(=O)Nc3cc(C)on3)C2=O)cc1 (stereo not drawn) | inconclusive: 10 µM [inhibitor, full curve, poor fit] | –
COc1ccc(C(=O)Nn2c(SCC(=O)N3CCC(C)CC3)nc3ccccc3c2=O)cc1 | inconclusive: 35.5 µM [inhibitor, partial curve] | –
CSc1nc(NCCOCCO)c2sc3nc(-c4ccco4)c4c(c3c2n1)CCC4 | inconclusive: 28.2 µM [inhibitor, partial curve] | –
O=C(COC(=O)c1ccc(Cl)nc1)Nc1cc(S(=O)(=O)N2CCCCC2)ccc1Cl | inconclusive: 7.94 µM [inhibitor, partial curve] | –

SMILES | Potency | activity change, negative = displacement
Cc1noc(C)c1COC(=O)Cc1ccc(Br)cc1 | inconclusive: 14.1 µM [inhibitor, partial curve] | –
CCC(Cn1nnc2ccccc2c1=O)NC(=O)Nc1ccccc1OC (stereo not drawn) | inconclusive: 20 µM [inhibitor, partial curve] | –
COc1cccc(-c2nc3ccccc3s2)c1 | inconclusive: 39.8 µM [inhibitor, partial curve] | –
O/N=C(\c1ccc(Cl)cc1Cl)c1ncc(C(F)(F)F)cc1Cl | active: 17.8 µM | –
CC1CCC(NS(=O)(=O)c2cccc3nsnc23)CC1 (stereo not drawn) | inconclusive: 50.1 µM [inhibitor, single point] | –
CC1=C(/C=C/C(C)=C/C=C/C(C)=C\CO)C(C)(C)CCC1 | inconclusive: 35.5 µM [inhibitor, single point] | –
Cc1cc2nc(SCC(=O)N(C)C)c3c(c2cc1C)CCCC3 | inconclusive: 44.7 µM [inhibitor, partial curve] | –
CC(/C=C/c1ccccc1)=N/NC(=O)CNC(=O)c1ccc2c(c1)OCO2 | inconclusive: 25.1 µM [inhibitor, partial curve] | –
Cc1cc(NC(=O)CCC(=O)N(Cc2cccs2)C(C(=O)NC2CCCC2)c2ccccc2)no1 (stereo not drawn) | inconclusive: 25.1 µM [inhibitor, partial curve] | –
COc1cc(/C=N/NC(=O)c2cc(-c3ccco3)nc3ccccc23)cc(OC)c1O | – | inactive: 4.87%
CCN(CC)c1ccc(NC(=O)c2cc(C)nc3c2c(C)nn3-c2ccc(C)cc2)c(C)c1 | – | inactive: -1.66%
Cc1cccc(OCC(=O)Nc2ccc(N3CCN(C(=O)c4ccco4)CC3)cc2)c1 | inconclusive: 20 µM [inhibitor, partial curve] | –
C=CCn1c(CSCc2ccc(F)cc2)n[nH]c1=S | inconclusive: 50.1 µM [inhibitor, single point] | –
CCCCOc1cccc(OCC(=O)Nc2nc3ccccc3[nH]2)c1 | inconclusive: 25.1 µM [inhibitor, partial curve, poor fit] | –
COc1ccc(S(=O)(=O)NCCc2ccccc2)cc1 | inconclusive: 20 µM [inhibitor, partial curve] | –
Cc1ccccc1-n1c(SCC(=O)Nc2ccccc2Cl)nc2n[nH]c(C)c2c1=N | – | inactive: -18.3%
O=C(COC(=O)CNC(=O)c1ccc(Cl)c([N+](=O)[O-])c1)NC(=O)c1ccccc1 | inconclusive: 28.2 µM [inhibitor, partial curve] | –
CCOc1ccc(C2c3c(oc4ccccc4c3=O)C(=O)N2CCCN2CCOCC2)cc1 (stereo not drawn) | – | inactive: -8.27%
CCCc1ccc(S(=O)(=O)N/N=C\c2ccc3c(c2)OCO3)cc1 | inconclusive: 25.1 µM [inhibitor, partial curve] | –
O=C(CNC(=O)c1ccccc1)OCc1cc(=O)n2nc(C3CCCCC3)sc2n1 | inconclusive: 12.6 µM [inhibitor, partial curve] | –
O=C(Nc1cc(C(F)(F)F)ccc1Cl)C(Sc1cccc[n+]1[O-])c1ccccc1 (stereo not drawn) | inconclusive: 50.1 µM [inhibitor, single point] | –
CC(C)=CC(=O)Nc1ccc(OCc2ccccc2)cc1 | inconclusive: 12.6 µM [inhibitor, partial curve] | –
CCOc1ccc(NS(=O)(=O)CC23CCC(CC2=O)C3(C)C)cc1 (stereo not drawn) | inconclusive: 39.8 µM [inhibitor, single point] | –

SMILES | Potency | activity change, negative = displacement
Cc1nc(-c2ccc(S(=O)(=O)Nc3cc(Cl)ccc3C)cc2)co1 | – | inactive: -13.1%
CCC(CC)C(=O)Nc1nnc(S(=O)(=O)N2CCCCCC2)s1 | inconclusive: 15.8 µM [inhibitor, partial curve] | –
CCn1ncc(/C=C/C(=O)Nc2c(C)nn(Cc3ccc(Cl)cc3Cl)c2C)c1C | inconclusive: 25.1 µM [inhibitor, partial curve] | –
Cc1ccc(C(C)C)c(OCc2ccc(C(=O)N/N=C/c3cccc(O)c3O)cc2)c1 | inconclusive: 28.2 µM [inhibitor, single point] | –
CC1CCC/C(=C\Nc2ccc(O)cc2)C1=O (stereo not drawn) | inconclusive: 35.5 µM [inhibitor, single point] | –
CC(C(=O)N(C)C1CCS(=O)(=O)C1)N1C(=O)/C(=C/c2ccc(F)cc2)SC1=S (stereo not drawn) | inconclusive: 35.5 µM [inhibitor, partial curve] | –
CC(C)N(CC#CCC1(O)c2ccccc2-c2ccccc21)CCO | – | inactive: 4.84%
Fc1ccc(/C=C2\CCCC3=C2Nc2ncnn2C3c2ccc(F)cc2)cc1 (stereo not drawn) | inconclusive: 8.91 µM [inhibitor, partial curve] | –
Cc1cc(Nc2ccc(Cl)cc2)n2ncnc2n1 | – | inactive: -0.603%
COc1ccccc1C(=O)NCCSCc1c(F)cccc1Cl | inconclusive: 25.1 µM [inhibitor, single point] | –
CCCCNC(=O)c1cc2cccc([N+](=O)[O-])c2[nH]1 | inconclusive: 35.5 µM [inhibitor, partial curve] | –
C[C@H](NC(=O)[C@@H](Cc1c[nH]c2ccccc12)NC(=O)[C@@H](N)Cc1cnc[nH]1)C(=O)N[C@@H](Cc1c[nH]c2ccccc12)C(=O)N[C@H](Cc1ccccc1)C(=O)N[C@@H](CCCCN)C(N)=O | – | inactive: -11.5%
Cc1ccc(-c2csc3ncn(CC(N)=O)c(=O)c23)cc1C | inconclusive: 31.6 µM [inhibitor, single point] | –
O=C(OCC1COc2ccccc2O1)c1ccccc1F (stereo not drawn) | inconclusive: 39.8 µM [inhibitor, partial curve] | –
CCOC(=O)c1cc2sc(C)cc2n1CC(=O)NCc1ccc(F)cc1 | – | inactive: 12.6%
CCc1ccc(Nc2n[n+](-c3ccccc3)c(-c3cc(OC)c(OC)cc3Br)s2)cc1 | – | inactive: -5.89%
CSc1ccccc1N=Cc1nc(-c2ccccc2)oc1O | inconclusive: 1 µM [inhibitor, full curve] | –
CCCOc1ccc(CCCN=C(N)N)cc1Cl | inconclusive: 31.6 µM [inhibitor, single point] | –
CCNc1ccc(S(=O)(=O)N(C)C)cc1NCC(=O)Nc1ccc(Br)cc1F | – | inactive: -9.55%
C/C=C(/C(=C/C)c1ccc(O)cc1)c1ccc(O)cc1 | inconclusive: 22.4 µM [inhibitor, partial curve] | –
COC(=O)CSc1[nH]c2ccc(Br)cc2c1[N+](=O)[O-] | – | inactive: -1.26%
COc1ccc(CNC(=O)COC(=O)C2CCC(C(C)(C)C)CC2)cc1 (stereo not drawn) | inconclusive: 3.98 µM [inhibitor, full curve] | –
